# In paper PMC4336329 (PLoS ONE, 2015):
# The campaign covered roughly 310,000 compounds. About 2,200 (0.71%) showed an effect of 50% or more. The effect is printed as a negative number. This is one part of the list.
# Target: human ether-à-go-go-related gene (hERG) potassium channel (human, UniProt Q12809)
# Assay: primary screen, population patch clamp on CHO cells stably expressing hERG
# Sequence of human ether-à-go-go-related gene (hERG) potassium channel (Q12809 whole entry, looked up): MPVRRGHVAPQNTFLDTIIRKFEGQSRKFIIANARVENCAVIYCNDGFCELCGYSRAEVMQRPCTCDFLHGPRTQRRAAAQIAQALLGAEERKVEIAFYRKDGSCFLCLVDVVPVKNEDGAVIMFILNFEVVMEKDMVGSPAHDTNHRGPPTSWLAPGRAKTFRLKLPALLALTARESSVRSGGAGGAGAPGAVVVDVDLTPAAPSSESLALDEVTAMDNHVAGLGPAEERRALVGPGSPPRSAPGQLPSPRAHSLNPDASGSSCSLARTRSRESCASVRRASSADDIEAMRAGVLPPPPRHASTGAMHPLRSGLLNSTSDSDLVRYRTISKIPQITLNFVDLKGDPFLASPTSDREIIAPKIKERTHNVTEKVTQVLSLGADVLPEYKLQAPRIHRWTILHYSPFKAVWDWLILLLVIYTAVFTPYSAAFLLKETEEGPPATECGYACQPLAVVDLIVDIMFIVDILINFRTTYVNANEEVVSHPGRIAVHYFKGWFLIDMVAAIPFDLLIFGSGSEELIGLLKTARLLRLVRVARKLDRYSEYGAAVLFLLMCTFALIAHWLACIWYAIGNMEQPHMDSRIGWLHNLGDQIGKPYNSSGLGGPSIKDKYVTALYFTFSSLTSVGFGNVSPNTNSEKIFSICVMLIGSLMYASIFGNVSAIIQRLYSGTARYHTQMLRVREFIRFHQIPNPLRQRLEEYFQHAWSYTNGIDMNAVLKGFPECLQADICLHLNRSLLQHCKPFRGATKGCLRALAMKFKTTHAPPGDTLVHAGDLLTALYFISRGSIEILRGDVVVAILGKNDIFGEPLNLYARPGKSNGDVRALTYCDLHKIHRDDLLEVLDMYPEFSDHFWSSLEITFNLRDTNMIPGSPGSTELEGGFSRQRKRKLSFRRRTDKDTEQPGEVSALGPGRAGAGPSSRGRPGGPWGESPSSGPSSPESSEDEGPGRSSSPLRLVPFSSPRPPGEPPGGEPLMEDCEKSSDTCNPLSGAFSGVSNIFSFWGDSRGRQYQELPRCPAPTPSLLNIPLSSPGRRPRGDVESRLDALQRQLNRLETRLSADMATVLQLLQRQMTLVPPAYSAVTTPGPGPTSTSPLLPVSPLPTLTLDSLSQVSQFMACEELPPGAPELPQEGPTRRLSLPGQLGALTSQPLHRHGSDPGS
row,Compound,"hERG current change (%, negative = inhibition) at 1uM [%]"
1,Cc1sc2nc(SC3CCOC3=O)n(Cc3ccccc3)c(=O)c2c1C (centres unmarked),-5.42
2,Cc1onc(-c2ccccc2Cl)c1C(=O)Nc1c(C)n(C)n(-c2ccccc2)c1=O,6.24
3,Cc1ccc(C)c(NC(=O)CCNS(=O)(=O)c2ccc3[nH]c(=O)oc3c2)c1,10.6
4,O=C(c1ccc(C(F)(F)F)cc1)N1CCC(=O)N(C(COCc2ccccc2)Cc2ccccc2)CC1 (centres unmarked),-0.658
5,Cc1cccc(C(=O)Nc2ccc(O)cc2C(=O)O)c1,-0.283
6,Cn1c(SCC(=O)NCc2ccco2)nnc1C1CCCC1,11.7
7,CC1CN(C(=S)Nc2cccc(Cl)c2)CC(C)O1 (centres unmarked),17.7
8,COc1ccc(/C=N/NS(=O)(=O)c2ccc(F)cc2)cc1CN1CCSCC1,7.52
9,O=C(Cc1n[nH]c(=O)[nH]c1=O)N/N=C/c1cccc(O)c1,9.82
10,Cc1ccc2c(c1)nnn2C1CCN(S(=O)(=O)c2cccc(S(=O)(=O)N(C)C)c2)CC1,8.71
11,Cc1cc(Br)ccc1NC(=O)CSc1nnc(CN2CCOCC2)n1C,12.3
12,CN(C)c1ccc(/C=C(\NC(=O)c2ccccc2)C(=O)NCCCN2CCOCC2)cc1,11.5
13,CN(C)C1=NC[C@H](Cc2ccccc2)N1CC1CCC(C(C)(C)C)CC1 (some centres unmarked),-2.63
14,CC1CCCCN1S(=O)(=O)c1ccc(C(=O)Nc2nnc(-c3ccccn3)o2)cc1 (centres unmarked),14.5
15,Cc1cc(=O)c2ccc(Cl)cc2[nH]1,17.6
16,Br.CC(C)(C)C(=O)CN1C2=NCCN2c2ccccc21,2.72
17,CCCCCCCCCCCC1=C(O)C(=O)C=C(O)C1=O,14.4
18,O=C(NCCCN1CCCC1=O)c1cc(-c2cccnc2)nc2ccc(Cl)cc12,0.512
19,Cc1ccc(C(=O)NC(=S)N2CCCCCC2)cc1,-2
20,CSc1nnc(NC(=O)C23CC4CC(CC(C4)C2)C3)s1,11.3
21,FC(F)(F)c1cccc(NC(=S)NC2CCCC2)c1,12.2
22,Cc1cc(=O)n2c(ccc3ccccc32)c1C#N,3.24
23,O=C1OC(Nc2cc(Br)cc3cccnc23)c2ccccc21 (centres unmarked),-0.215

row,Compound,"hERG current change (%, negative = inhibition) at 1uM [%]"
1,CCC(C)NC(=O)CSc1nc2ccsc2c(=O)n1NC(=O)c1ccccc1 (centres unmarked),10.1
2,Cc1ccc(C(=O)N/C(=C/c2ccc(Cl)cc2)C(=O)NCC2CCCO2)cc1 (centres unmarked),-5.12
3,O=C(CSC1=NCCS1)NC1CCCC1,4.35
4,CC(C)n1nc(C(=O)Nc2nnc(C3CC3)s2)c2ccccc2c1=O,11.5
5,CCCN1C2CCCC1CC(NC(=S)Nc1cc(C)cc(C)c1)C2 (centres unmarked),-81.4
6,O=C(CC1C(=O)NCCN1C(=S)Nc1ccccc1)Nc1ccc2c(c1)OCCO2 (centres unmarked),-1.18
7,COc1ccc(C(C(=O)NC2CCCC2)N(Cc2ccccc2)C(=O)c2snc(C(N)=O)c2N)cc1OC (centres unmarked),7.99
8,CCOCC(=O)Nc1c(C)n(C)n(-c2ccccc2)c1=O,10.8
9,O=C(COC(=O)c1ccc(Br)o1)Nc1nc2c(F)c(F)c(F)cc2s1,13.8
10,CC(C)CNC(=O)CSc1nnc(-c2ccc(Cl)cc2)n1N,3
11,COCCNP(=O)(c1ccccc1)c1nc2ccccc2s1 (centres unmarked),-5.08
12,CCOc1ccc(-c2nc(CSCC(=O)NCCN3CCOCC3)c(C)o2)cc1,9.19
13,COc1ccc(C(=O)Nc2ccc(S(=O)(=O)Nc3onc(C)c3C)cc2)c(OC)c1,9.23
14,O=C(NC1CCCCCC1)C1c2ccccc2C(=O)N1Cc1ccco1 (centres unmarked),-3.1
15,Cl.O=C(CN1C2CCC1CC(NC(=O)NC1CCCCC1)C2)NC1CC1 (centres unmarked),6.8
16,CCCCn1c(-c2cccc(C)c2)nc2cc3[nH]c(=O)c(C(C)C)nc3cc21,12.5
17,CC1CC(C)CN(S(=O)(=O)c2ccc(C(=O)NN3CCOCC3)cc2)C1 (centres unmarked),7.08
18,CCCn1c(SCC(=O)Nc2c(C)cccc2CC)nnc1C(C)C,8.79
19,O=C(COc1ccc(Cl)cc1)N(Cc1ccccc1)c1ccccn1,-1.62
20,COc1ccc(NC(=O)CNC(=O)c2nn(-c3ccc(OC)c(Cl)c3)c(=O)c3ccccc23)c(OC)c1,11.5
21,COc1ccc(C)cc1NC(=O)Cn1cnnn1,13.8
22,COc1ccccc1N/C=C1/Sc2cc(Cl)ccc2NC1=O,9.08
23,CCOC(=O)C(C)n1cnc2c1c(=O)[nH]c(=O)n2C (centres unmarked),8.76

row,Compound,"hERG current change (%, negative = inhibition) at 1uM [%]"
1,CCn1c(-c2sc(-c3ccccc3)nc2C)n[nH]c1=S,13.1
2,O=C(O)c1ccc(CSc2nc3ccccc3o2)cc1,5.85
3,CCOC(=O)N1CCN(C(=O)c2c(-c3c(Cl)cccc3Cl)noc2C)CC1,3.28
4,CN(C)C(=S)Nc1ccc(Cl)cc1,22
5,Cc1c(Cl)cccc1-n1c(SCC(=O)NCc2ccccc2Cl)nnc1-c1ccncc1,4.95
6,CC(C)Cn1nc(C(=O)Nc2cccc(C(=O)NC3CC3)c2)c2ccccc2c1=O,-18.4
7,CCOc1ccc(NC(=O)COC(=O)CC2CCCCC2)cc1,6.04
8,O=c1ccc2cc(S(=O)(=O)N3CCN(c4ccccc4)CC3)ccc2[nH]1,5.49
9,CCOc1nc(C)ccc1-c1noc(C)n1,2.75
10,O=C(COC(=O)c1cn(-c2ccccc2)nc1-c1ccccc1)c1ccc([N+](=O)[O-])cc1,7.57
11,Cc1nn2c(N)c(-c3ccccc3)cnc2c1-c1ccccc1,15
12,O=C(c1ccc(Sc2cccc(Cl)c2)c([N+](=O)[O-])c1)N1CCN(c2ccccn2)CC1,13.5
13,CN(CC(=O)Nc1ccc(F)cc1)C(=O)CSc1nc2ncc(Cl)cc2[nH]1,8.21
14,C=CCNC1=C(Cl)C(=O)N(Cc2ccccc2)C1=O,13.9
15,COc1cccc(NC(=O)CSc2nc3ccccc3n2C)c1,-3.2
16,CCc1cc(CNC(=O)C2CCC(=O)N(CCc3ccc(OC)cc3)C2)on1 (centres unmarked),6.44
17,COCCNS(=O)(=O)c1ccc(Cl)c(C(=O)NC2CCN(Cc3ccccc3)CC2)c1,9.74
18,Cc1ccc(S(=O)(=O)/N=C(/Nc2ccc(O)c(C(=O)O)c2)c2ccccc2)cc1,7.5
19,Cn1c(=O)c2c(c3ccccc31)OC(C)(C)CC2,6.23
20,COc1ccccc1-n1cnnc1SCC(=O)Nc1cc(C)on1,7.75
21,Cc1ccc(Sc2ccc(C=C3C(=O)N(C)C(=O)N(C)C3=O)o2)cc1,7.48
22,CCOC(=O)C1CCN(C(=O)CC2(CC(=O)O)CCCC2)CC1,4.94
23,Cc1ccc(NC(=O)c2cnn(C)c2)cc1[N+](=O)[O-],6.16

row,Compound,"hERG current change (%, negative = inhibition) at 1uM [%]"
1,O=C(Nc1cccc(NC(=O)c2ccccc2Cl)c1)c1cccs1,14.6
2,COc1ccccc1NS(=O)(=O)c1ccc(/C=C/C(=O)N2CCN(C(C)=O)CC2)cc1,3.69
3,COc1ccc(-c2[nH]ncc2CN(C)C(C)c2cccs2)c(F)c1 (centres unmarked),6.62
4,Cc1cc(SCC(=O)Nc2ccc(O)cc2)n2nc(C)c(-c3ccccc3)c2n1,7.76
5,COc1ccc2oc(N)c(C=O)c(=O)c2c1,11.4
6,CCCCC1=CC2=C(c3ccco3)C(=O)C(C)(OC(=O)c3ccc(OC)cc3)C(=O)C2=CN1C(CO)CO (centres unmarked),9.2
7,CCC(C)N(C(=O)Cn1c(=O)cnc2ccccc21)C1CCS(=O)(=O)C1 (centres unmarked),0.0556
8,CC1CCCN(CC(O)COCc2ccc3c(c2)OCO3)C1.Cl (centres unmarked),-0.142
9,Cc1nn(-c2ccccc2)c(N)c1C1(O)C(=O)N(C(C)C)c2ccccc21 (centres unmarked),9.1
10,CCC(Oc1ccccc1)C(=O)N1CCC(C(N)=O)CC1 (centres unmarked),16.3
11,O=C1NCCCN1Cc1ccc(Cl)cc1,4.46
12,NC(=O)c1ccc(NC(=O)CSc2nc3ccccc3c(=O)n2CCCN2CCOCC2)cc1,12.3
13,Cn1c(=O)c(C(=O)c2ccc(S(C)(=O)=O)c(Cl)c2Cl)c(O)c2ccccc21,10.8
14,CC(/C=C1\SC(=S)N(CCC(=O)Nc2nc(C)cs2)C1=O)=C\c1ccccc1,13.9
15,S=c1[nH]nc(-c2ccc(Cl)cc2Cl)n1-c1ccccc1,14.8
16,CCN1CCN(C(=O)c2ccc3c(c2)N(Cc2ccc(C)cc2)CCS3)CC1,4.13
17,CC1CN(S(=O)(=O)c2cccc(C(=O)OCC(=O)c3cccs3)c2)CC(C)O1 (centres unmarked),-3.03
18,Cc1ccccc1CSCC(=O)c1c(N)n(CC(C)C)c(=O)n(C)c1=O,6.09
19,O=C(Cn1c(=O)n(CC2CS2)c2ccccc21)N1CCCCCC1 (centres unmarked),7.16
20,CCCCCN(C(=O)NC(=O)Nc1ccc(C)cc1)S(=O)(=O)c1ccccc1,7.04
